# Reference: PubChem BioAssay AID624202 (National Center for Advancing Translational Sciences (NCATS), 2012)
# About 4,000 (1.1%) of roughly 380,000 compounds were called active. Inconclusive results, whose numbers are uncertain, are shown with a selection of clear calls. Calls follow the shape of the dose curve; as a rule, active = well fitted activation curve with a large enough effect; inconclusive = small, poorly fitted or top-dose-only effect; inactive = no such curve, though single readings can be large or run the other way. A potency beside an inconclusive call is a rough fit, not a confirmed value.
# Experiment: qHTS Assay to Identify Small Molecule Activators of BRCA1 Expression; also: nearly all actives have a fitted effect of over 80% in size
# Conditions: MCF7-BRCA1-FFLuc reporter, luminescence, 48 h; activation: at 46.1 µM (top of the series), scaled: vehicle 0%, 10 µM genistein 100% unless noted
# Method in brief: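 Luminescence from a BRCA1-driven firefly luciferase in MCF7 cells was read after 48 h compound exposure at 37 C. Data normalized against DMSO and a 10microM genistein activation control, then curve-fitted across the titration.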
# Potency is read from the fitted curve at half-maximal effect; tags tell the direction and shape of the fitted curve.
SMILES,Potency,activation
Brc1ccc(-c2nc(-c3ccncc3)no2)cc1,"inconclusive: 0.562 µM [activator, full curve, poor fit]",–
CCOCCCN(C)C1CCN(C(=O)c2oc3ccccc3c2NC(=O)c2ccc(F)cc2)CC1,inactive,–
Cc1ccccc1NC(=O)c1cc2ccccc2o1,"inconclusive: 31.6 µM [activator, single point]",–
Cn1ccnc1SCc1cn2ccccc2n1,"inconclusive: 1.78 µM [activator, full curve, poor fit]",–
CN(Cc1cccc2cnccc12)C(=O)CCc1nnc(CCc2ccccc2)o1,"inconclusive: 22.4 µM [activator, single point]",–
CC(=O)Nc1ccc(CC(=O)Nc2ccc3c(c2)OC2(CCCC2)O3)cc1,"inconclusive: 10 µM [activator, partial curve, poor fit]",–
Cc1ccc(/C(N)=N/OC(=O)CCc2ccccc2)cc1,"inconclusive: 15.8 µM [activator, partial curve, poor fit]",–
COc1ccc2cc(C3OCCO3)c(Cl)nc2c1,"inconclusive: 6.31 µM [activator, partial curve, poor fit]",–
O=C(NCc1ccncc1)C(=O)N/N=C/c1ccc(OCc2ccccc2)cc1,"inconclusive: 14.1 µM [activator, partial curve, poor fit]",–
CCCCSc1ncnc2c1ncn2C1CCCCO1 (stereo not given),"inconclusive: 0.631 µM [activator, full curve, poor fit]",–
O=C(CSc1ccc(F)cc1)Nc1ccc(C2SCCS2)cc1,"inconclusive: 35.5 µM [activator, single point]",–
Fc1cccc(F)c1CSc1nc2ccccc2[nH]1,"inconclusive: 0.631 µM [activator, full curve, poor fit]",–
Cc1ccc(CNC(=O)c2ccc(C)s2)cc1,active: 12.6 µM,–
CN(C#N)c1nc(N2CCOCC2)nc(N2CCOCC2)n1,inactive,–
C#Cc1ccc2c(c1)COc1c3ccccc3nn1-2,"inconclusive: 2.51 µM [activator, partial curve, poor fit]",–
CC1(C)CN(c2ccc(Br)cc2)C(=O)[C@H]1CC(=O)Nc1ccccc1,inactive,–
C[C@H](NC(=O)[C@@H]1Cc2ccccc2CN1C(=O)OC(C)(C)C)C(=O)NCc1ccco1,inactive,–
COc1ccc([C@H]2CC(=O)C=C(/C=C/c3ccccc3)C2)cc1,"inconclusive: 15.8 µM [activator, single point]",–
Cc1cccc(-c2nnc(-c3ccc(N)cc3)o2)c1,"inconclusive: 2.51 µM [activator, partial curve, poor fit]",–
COc1ccc(-c2cn3ccc(C)cc3n2)cc1,–,inconclusive: -54% [activator]
C=CCN(c1ccccc1)S(=O)(=O)c1cccc(C(=O)NCc2ccncc2)c1,inactive,–
O=C(COc1ccc2ccccc2c1)N1CCCC1,active: 11.2 µM,–
Cc1cc(N)n2ncc(-c3ccccc3)c2n1,"inconclusive: 14.1 µM [activator, partial curve, poor fit]",–
O=C(Nc1cccc(NC(=O)c2ccccc2)n1)c1ccccc1,"inconclusive: 35.5 µM [activator, single point]",–
Cc1ccccc1CSCc1nc(N)nc(Nc2ccccc2C)n1,active: 11.2 µM,–
NC(=O)NC[C@@H]1CC[C@@H](Cc2ccc(-c3ccccc3)cc2)O1,"inconclusive: 12.6 µM [activator, partial curve, poor fit]",–
CCOC(=O)Nc1ccc2nc(Sc3ccc(Cl)cc3)sc2c1,inactive,–

SMILES,Potency,activation
O=C(CSc1nccn1-c1ncc(C(F)(F)F)cc1Cl)c1ccc(Cl)cc1,inactive,–
CC(C)n1cnc2c(Nc3cccc(F)c3)nc(NCCO)nc21,"inconclusive: 22.4 µM [activator, single point]",–
CC(C)CC(=O)N/C(N)=N/c1nc2ccccc2s1,"inconclusive: 0.631 µM [activator, full curve, poor fit]",–
COCCN(Cc1ccccc1)C(=S)Nc1ccc(Cl)cc1,inactive,–
Cc1[nH]n(C(N)=S)c(=O)c1N=Nc1cccc(Cl)c1,"inconclusive: 11.2 µM [activator, partial curve, poor fit]",–
COc1ccccc1CN1CC(C(=O)NCc2cc(F)ccc2C)CCC1=O (stereo not given),"inconclusive: 20 µM [activator, single point]",–
CCN(C(=O)c1cccs1)c1nnc(-c2ccncc2)s1,"inconclusive: 17.8 µM [activator, single point]",–
N#C/C(=C(/O)CN1CCCCC1)c1nc(-c2ccc(Cl)cc2)cs1,active: 7.08 µM,–
Cc1ccc(C(=O)Cn2nnc3ccccc32)cc1C,"inconclusive: 1.12 µM [activator, full curve, poor fit]",–
CCN(CC)Cc1c(NC(=O)c2ccccc2)sc(C)c1C,inactive,–
CCn1nc(NC(=O)c2ccccn2)c2cc3cc(C)ccc3nc21,inactive,–
CN(C)CCCNc1cc(C(C)(C)C)nc2c(-c3ccccc3)cnn12,active: 5.62 µM,–
Cc1ccc(C(=O)Nc2ccsc2C(=O)O)cc1,"inconclusive: 1 µM [activator, partial curve, poor fit]",–
CCOC(=O)c1ccc(NC(=O)Cn2nnc3ccccc32)cc1,active: 3.98 µM,–
Cc1[nH]c2ccc(-c3n[nH]c(=S)n3-c3ccc(Br)cc3)cc2c1C,inactive,–
Cn1c(-c2ccc(F)cc2)cc2onc(-c3c(F)cccc3Cl)c2c1=O,active: 2 µM,–
COc1ccc2[nH]c3c(=O)n(Cc4ccco4)cnc3c2c1,"inconclusive: 7.08 µM [activator, partial curve, poor fit]",–
O=C(Cc1cnn(-c2ccccc2)c1)c1ccc(O)c(O)c1O,active: 5.62 µM,–
C/C(=N\Nc1nncc2ccccc12)c1ccc(O)cc1,"inconclusive: 0.562 µM [activator, full curve, poor fit]",–
O=C1/C(=C/c2ccccc2)CCCc2ccccc21,inactive,–
Clc1ccc(Cc2noc(-c3cccs3)n2)cc1,"inconclusive: 15.8 µM [activator, partial curve, poor fit]",–
Cc1ccc(-c2nn(C)c(=O)c3ccccc23)cc1CNC(=O)c1ccccc1,inactive,–
CCCCNc1c(-c2cccc(SC(C)CC)c2)nc2ccc(Cl)cn12 (stereo not given),inactive,–
O=C1c2ccccc2C(=O)N1CCOc1ccccc1Cl,"inconclusive: 2 µM [activator, full curve, poor fit]",–
COc1ccc(CCN2C(=O)/C(=C\c3ccco3)SC2=S)cc1OC,inactive,–
CCOC(=O)c1ccc(NC(=O)Cn2ncc(Cl)c(Cl)c2=O)cc1,inactive,–
Cc1ccc(SC2=C(N(C)C)C(=O)c3ccccc3C2=O)cc1,inactive,–

SMILES,Potency,activation
Cc1ccc(NC(=O)CCc2ccccc2)cc1C,active: 12.6 µM,–
O=C1NC(=S)N/C1=C/c1cccc2ccccc12,active: 12.6 µM,–
Cn1c(CCNC(=O)c2ccco2)nc2cc(NC(=O)c3ccco3)ccc21,active: 8.91 µM,–
CCOCC(=O)Nc1ccc(C)c(Cl)c1,inactive,–
CCc1ccc(Nc2ncnc3nc[nH]c23)cc1,"inconclusive: 1.41 µM [activator, full curve, poor fit]",–
O=C1C=C(CCc2ccccc2)CCC1,inactive,–
COc1cc2nc(CSc3nc(-c4ccc(F)cc4)cs3)[nH]c(=O)c2cc1OC,inactive,–
COc1cccc(C(=O)NCCn2ccc3ccccc32)c1,"inconclusive: 7.08 µM [activator, partial curve, poor fit]",–
Nc1ccc2nc(NC(=O)C3CCCCC3)sc2c1,"inconclusive: 17.8 µM [activator, single point]",–
Cc1ccc(NC(=O)NC(=O)c2ccccc2)cc1F,"inconclusive: 0.562 µM [activator, full curve, poor fit]",–
Fc1ccc(N2CCN(c3ncnc4[nH]ncc34)CC2)cc1,inactive,–
O=C(N/N=C/c1ccc(OC(=O)c2cccs2)cc1)c1ccccn1,"inconclusive: 8.91 µM [activator, partial curve, poor fit]",–
COc1ccc(-c2ccc(OC(=O)NC3CCS(=O)(=O)C3)cc2)cc1 (stereo not given),"inconclusive: 15.8 µM [activator, partial curve, poor fit]",–
COc1ccc(C(C)=O)cc1CSc1nnc(Nc2ccc(C)cc2C)s1,inactive,–
COc1ccccc1N1CCN(/N=C/C(Cl)=C/c2ccccc2)CC1,active: 3.98 µM,–
CCOC(=O)c1sc2nc(COC(=O)c3c(F)cccc3F)[nH]c(=O)c2c1C,inactive,–
O=C(c1ccccc1)c1cc2ccccc2oc1=O,inactive,–
Cc1ccc(SCC(=O)c2ccc[nH]2)cc1,active: 3.16 µM,–
O=C(Nc1ccc2c(c1)Cc1ccccc1-2)c1ccco1,"inconclusive: 1.26 µM [activator, partial curve, poor fit]",–
Cn1c(=NC(=O)CS(=O)(=O)c2ccccc2)sc2ccccc21,"inconclusive: 7.94 µM [activator, partial curve, poor fit]",–
C/C(=N\NC(=O)CN(c1ccccc1)S(C)(=O)=O)c1ccccc1O,inactive,–
COc1ccccc1C=NN1C(=O)CSC1=S,inactive,–
COc1ccc(CCNC(=O)c2ccccc2Cl)cc1OC,inactive,–
Cc1cc(C)n(-c2ccc(C(=O)Nc3ccc4c(c3)OCO4)cc2)n1,"inconclusive: 22.4 µM [activator, single point]",–
O=C(NCc1cccc(Cl)c1)c1ccc2c(c1)OCO2,inactive,–
O=C(Cc1ccccc1)Nc1cccc(N2C(=O)C=CC2=O)c1,"inconclusive: 35.5 µM [activator, single point]",–
